Assay results: the antibiotic and cytotoxicity screens of Wong et al. (2023)
Some of the results follow.

tested on: HSkMC (human skeletal muscle cells); assay: cytotoxicity call (relative viability < 0.9); conditions: 10 µM

Row | SMILES | cytotoxicity call
1 | CC(C)C[C@@H]1NC(=O)[C@H]2C[C@@H](C(=O)NCCCCCCNC(=O)CS)[C@@H](c3ccc(O)cc3)N2C1=O | inactive
2 | COc1ccc(S(=O)(=O)Nc2cccc3c2O[C@H](CN(C)Cc2ccc(Cl)c(Cl)c2)[C@H](C)CN([C@H](C)CO)C3=O)cc1 | inactive
3 | CN1CCN(C(=O)C[C@@H]2CC[C@H]3[C@@H](COC[C@H](O)CN3C(=O)Nc3cc(Cl)cc(Cl)c3)O2)CC1 | inactive
4 | C[C@@H]1CN([C@@H](C)CO)C(=O)c2c(c3ccccc3n2C)-c2ccccc2CO[C@@H]1CN(C)Cc1ccc(-c2ccccc2)cc1 | active
5 | C[C@H]1CN([C@@H](C)CO)C(=O)Cc2cc(NC(=O)CCN3CCOCC3)ccc2O[C@@H]1CN(C)S(=O)(=O)c1cn(C)cn1 | inactive
6 | COCC#Cc1cnc2c(c1)C(=O)N([C@H](C)CO)C[C@H](C)[C@@H](CN(C)C(=O)CN1CCOCC1)O2 | inactive
7 | C[C@@H]1CN([C@H](C)CO)C(=O)c2cc(NS(=O)(=O)c3cn(C)cn3)ccc2O[C@@H](C)CCCCO[C@@H]1CN(C)S(=O)(=O)c1ccc(F)cc1 | inactive
8 | O=S(=O)(NCC[C@H]1CC[C@@H](NS(=O)(=O)c2cccc(Cl)c2)[C@@H](CO)O1)c1cccc(F)c1 | inactive
9 | Cn1c([N+](=O)[O-])cnc1COC(N)=O | inactive
10 | CC(C)NC(=O)N(C)C[C@@H]1Oc2ccc(NC(=O)NC3CCCCC3)cc2C(=O)N([C@H](C)CO)C[C@@H]1C | inactive
11 | Cc1ccc(S(=O)(=O)N(C)C[C@@H]2OCCCC[C@@H](C)Oc3ccc(NS(=O)(=O)c4ccc(Cl)cc4)cc3C(=O)N([C@H](C)CO)C[C@@H]2C)cc1 | inactive

tested on: HepG2; assay: cytotoxicity call (relative viability < 0.9); conditions: 10 µM

Row | SMILES | cytotoxicity call
12 | C[C@@H]1CN([C@@H](C)CO)C(=O)c2cccc(NC(=O)Nc3cccc4ccccc34)c2O[C@H]1CN(C)CC1CC1 | inactive
13 | Cc1noc(C)c1S(=O)(=O)Nc1ccc2c(c1)C(=O)N([C@H](C)CO)C[C@H](C)[C@H](CN(C)C(=O)Nc1ccccc1)OCCCC[C@H](C)O2 | inactive
14 | O=C(C[C@@H]1C=C[C@@H](NC(=O)C2CCC2)[C@@H](CO)O1)NCCCN1CCOCC1 | inactive
15 | Cc1noc(C)c1NC(=O)N(C)C[C@@H]1OCCCC[C@H](C)Oc2ccc(NC(=O)C3CCCCC3)cc2C(=O)N([C@H](C)CO)C[C@H]1C | inactive
16 | CC(C)CC#Cc1ccc2c(c1)O[C@@H](CN(C)C(=O)c1cnccn1)[C@@H](C)CN([C@H](C)CO)S2(=O)=O | inactive
17 | COc1ccc(S(=O)(=O)N(C)C[C@@H]2Oc3c(NC(=O)Nc4cccc5ccccc45)cccc3C(=O)N([C@H](C)CO)C[C@@H]2C)cc1 | inactive
18 | C[C@@H]1CN([C@@H](C)CO)C(=O)c2cc(NC(=O)Nc3ccc(F)cc3)ccc2O[C@H]1CN(C)Cc1ccc(C(F)(F)F)cc1 | active
19 | NCCNC(=O)c1nc(-c2ccc(Br)o2)no1 | inactive
20 | COc1ccc(NC(=O)N(C)C[C@H]2OCCCC[C@H](C)Oc3ccc(NS(=O)(=O)c4c(C)noc4C)cc3C(=O)N([C@@H](C)CO)C[C@H]2C)cc1 | inactive
21 | COc1ccc(CN(C)C[C@H]2Oc3ccc(NC(=O)Nc4cccc5ccccc45)cc3CC(=O)N([C@H](C)CO)C[C@H]2C)cc1 | active
22 | COc1ccc([C@H]2CC=CC[C@H](C)Oc3ccccc3C(=O)N(C)[C@@H](Cc3ccccc3)C(=O)N2)c(OC)c1 | inactive
23 | C[C@H]1CCCCO[C@H](CN(C)C(=O)Cc2ccccc2)[C@@H](C)CN([C@@H](C)CO)C(=O)c2cc(NC(=O)c3ccccc3)ccc2O1 | inactive
24 | C[C@@H]1CN([C@H](C)CO)C(=O)c2cc(NC(=O)Nc3ccc(C(F)(F)F)cc3)ccc2O[C@@H](C)CCCCO[C@H]1CN(C)Cc1ccc(Cl)c(Cl)c1 | inactive
25 | Cn1cnc(=N)c2[nH]cnc21 | inactive
26 | CO[C@@H](CN(C)C(=O)Nc1ccc(C(F)(F)F)cc1)[C@H](C)CN(Cc1ccccc1Cl)[C@@H](C)CO | inactive
27 | C[C@@H]1CCCCO[C@@H](CN(C)CC2CCCCC2)[C@H](C)CN([C@@H](C)CO)C(=O)c2cc(N(C)C)ccc2O1 | inactive
28 | CN(C)CCCNC(=O)C[C@@H]1CC[C@@H](NS(=O)(=O)c2ccccc2)[C@H](CO)O1 | inactive
29 | C[C@@H]1CN([C@H](C)CO)C(=O)c2cc(NC(=O)CCC(F)(F)F)ccc2O[C@@H](C)CCCCO[C@@H]1CN(C)S(=O)(=O)c1cccs1 | inactive
30 | C[C@H](CO)N1C[C@H](C)[C@H](CN(C)C(=O)Nc2ccc(F)cc2)OCCCC[C@H](C)Oc2ccc(NS(=O)(=O)c3ccc(Cl)cc3)cc2C1=O | active
31 | C[C@H](CO)N1C[C@H](C)[C@@H](CN(C)C(=O)Nc2ccccc2)OCCCC[C@H](C)Oc2ccc(NC(=O)Nc3cccc4ccccc34)cc2C1=O | inactive

Row | SMILES | cytotoxicity call
32 | NCC1OC(OC2C(N)CC(N)C(O)C2OC2OC(CO)C(O)C2O)C(N)C(O)C1O.O=S(=O)(O)O (stereo unspecified) | inactive
33 | Cn1cnc(CCNC(=O)C[C@@H]2CC[C@H]3[C@@H](COC[C@H](O)CN3C(=O)Nc3ccc(Cl)cc3)O2)c1 | inactive
34 | CCC(=O)OC(OP(=O)(CCCCc1ccccc1)CC(=O)N1CC(C2CCCCC2)CC1C(=O)[O-])C(C)C.[Na+] (stereo unspecified) | inactive
35 | CCOc1cc(OCC)cc(C(=O)N[C@@H](Cc2ccc(-n3cc(-c4ccc(C(=O)NO)s4)nn3)cc2)C(=O)OC)c1 | inactive
36 | CC(C)NC(=O)Nc1ccc2c(c1)C(=O)N(C)[C@H]1CC[C@H](CC(=O)NCc3ccc(F)cc3)O[C@H]1CO2 | inactive
37 | C[C@@H]1CN([C@H](C)CO)C(=O)CCCn2cc(nn2)CO[C@@H]1CN(C)C(=O)c1ccc(N2CCN(C)CC2)cc1 | inactive
38 | C[C@@H]1CN([C@@H](C)CO)C(=O)c2cc(NC(=O)Cn3cnnn3)ccc2O[C@H]1CN(C)C(=O)Nc1ccc(C(F)(F)F)cc1 | inactive
39 | CC(C)NC(=O)Nc1ccc2c(c1)C(=O)N([C@H](C)CO)C[C@H](C)[C@H](CN(C)Cc1ccc3c(c1)OCO3)O2 | inactive
40 | CCCCOc1ccc(C(=O)C2=C(O)C(=O)N(Cc3cccnc3)[C@H]2c2ccc(O)c(OCC)c2)c(C)c1 | inactive
41 | CC(C)C[C@@H]1NC(=O)[C@H]2C[C@@H](C(=O)NCCCCCCNC(=O)CS)[C@@H](c3ccc(O)cc3)N2C1=O | inactive
42 | COc1ccc(S(=O)(=O)Nc2cccc3c2O[C@H](CN(C)Cc2ccc(Cl)c(Cl)c2)[C@H](C)CN([C@H](C)CO)C3=O)cc1 | inactive
43 | CN1CCN(C(=O)C[C@@H]2CC[C@H]3[C@@H](COC[C@H](O)CN3C(=O)Nc3cc(Cl)cc(Cl)c3)O2)CC1 | inactive
44 | C[C@@H]1CN([C@@H](C)CO)C(=O)c2c(c3ccccc3n2C)-c2ccccc2CO[C@@H]1CN(C)Cc1ccc(-c2ccccc2)cc1 | inactive
45 | C[C@H]1CN([C@@H](C)CO)C(=O)Cc2cc(NC(=O)CCN3CCOCC3)ccc2O[C@@H]1CN(C)S(=O)(=O)c1cn(C)cn1 | inactive
46 | COCC#Cc1cnc2c(c1)C(=O)N([C@H](C)CO)C[C@H](C)[C@@H](CN(C)C(=O)CN1CCOCC1)O2 | inactive
47 | C[C@@H]1CN([C@H](C)CO)C(=O)c2cc(NS(=O)(=O)c3cn(C)cn3)ccc2O[C@@H](C)CCCCO[C@@H]1CN(C)S(=O)(=O)c1ccc(F)cc1 | inactive
48 | O=S(=O)(NCC[C@H]1CC[C@@H](NS(=O)(=O)c2cccc(Cl)c2)[C@@H](CO)O1)c1cccc(F)c1 | inactive
49 | Cn1c([N+](=O)[O-])cnc1COC(N)=O | inactive
50 | CC(C)NC(=O)N(C)C[C@@H]1Oc2ccc(NC(=O)NC3CCCCC3)cc2C(=O)N([C@H](C)CO)C[C@@H]1C | inactive
51 | Cc1ccc(S(=O)(=O)N(C)C[C@@H]2OCCCC[C@@H](C)Oc3ccc(NS(=O)(=O)c4ccc(Cl)cc4)cc3C(=O)N([C@H](C)CO)C[C@@H]2C)cc1 | inactive
